These results are taken from US20200255480A1 (Harvard, published 2020).

This experiment addresses T1, wild-type CsgA (Escherichia coli, UniProt P28307).
T1 construct: The protein stood assembled into curli fibres on biofilms, or as sheared fibres in the gel experiment; also called wt-CsgA; CsgA WT
The experiment can be described thus: denaturing SDS-PAGE after incubation of AmylaseSC with crudely purified curli fibres (FIG. 9).

B1: Amylase-SpyCatcher (enzyme)
chain: not shown
notes: It was expressed from pET28b in Rosetta cells and purified on Ni-NTA; also called AmylaseSC; Amylase-SC
For the molecule B1, the binding result is “no binding”.
